Data published in the supplement of paper PMC11741623.
Some of the results follow. Interaction screen of human proteins with wild-type SARS-CoV-2 proteins by split-DHFR complementation in yeast, 1 µg/mL methotrexate. Value = fitness of the pair (three or more lineages) minus that of the viral protein without a human partner, on a scale set by negative (0) and fused positive (1) controls, mean of up to three cultures; higher = more likely to interact. Active = false discovery rate below 0.05 (one-sided t-test) in at least one culture. Nearly all pairs are not hits, and differences among them are mostly noise (correlation between cultures about 0.3); most hits were seen in one culture only. Human sequences are the Swiss-Prot entries looked up by gene name; the clone may be another isoform. NSP2 values were corrected by the authors for a growth advantage. Listed are human proteins with a hit and a random twelfth of the others.

Assays:
Experiment in all cases: yeast fitness gain over the viral ORF with no human partner (scaled fitness); higher = more likely to interact
SARS-CoV-2 E = target: SARS-CoV-2 E
Procedure: (§1)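 Split mouse DHFR complementation in pooled diploid yeast: human ORFeome clones carry one fragment and viral ORFs the other; barcoded lineages compete in 1 µg/mL methotrexate and fitness is read by barcode sequencing in up to three cultures.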

SARS-CoV-2 M = target: SARS-CoV-2 M
Procedure: as §1

SARS-CoV-2 N = target: SARS-CoV-2 N
Procedure: as §1

SARS-CoV-2 NSP1 = target: SARS-CoV-2 NSP1
Procedure: as §1

SARS-CoV-2 NSP10 = target: SARS-CoV-2 NSP10
Procedure: as §1

SARS-CoV-2 NSP12 = target: SARS-CoV-2 NSP12
Procedure: as §1

SARS-CoV-2 NSP13 = target: SARS-CoV-2 NSP13
Procedure: as §1

SARS-CoV-2 NSP15 = target: SARS-CoV-2 NSP15
Procedure: as §1

SARS-CoV-2 NSP16 = target: SARS-CoV-2 NSP16
Procedure: as §1

SARS-CoV-2 NSP2 = target: SARS-CoV-2 NSP2
Procedure: as §1

SARS-CoV-2 NSP4 = target: SARS-CoV-2 NSP4
Procedure: as §1

SARS-CoV-2 NSP5 = target: SARS-CoV-2 NSP5
Procedure: as §1

SARS-CoV-2 NSP6 = target: SARS-CoV-2 NSP6
Procedure: as §1

SARS-CoV-2 NSP7 = target: SARS-CoV-2 NSP7
Procedure: as §1

SARS-CoV-2 NSP8 = target: SARS-CoV-2 NSP8
Procedure: as §1

SARS-CoV-2 NSP9 = target: SARS-CoV-2 NSP9
Procedure: as §1

SARS-CoV-2 ORF10 = target: SARS-CoV-2 ORF10
Procedure: as §1

SARS-CoV-2 ORF3A = target: SARS-CoV-2 ORF3A
Procedure: as §1

SARS-CoV-2 ORF3B = target: SARS-CoV-2 ORF3B
Procedure: as §1

SARS-CoV-2 ORF6 = target: SARS-CoV-2 ORF6
Procedure: as §1

SARS-CoV-2 ORF7A = target: SARS-CoV-2 ORF7A
Procedure: as §1

SARS-CoV-2 ORF7B = target: SARS-CoV-2 ORF7B
Procedure: as §1

SARS-CoV-2 ORF8 = target: SARS-CoV-2 ORF8
Procedure: as §1

SARS-CoV-2 ORF9B = target: SARS-CoV-2 ORF9B
Procedure: as §1

[1] = target: SARS-CoV-2 ORF9Bwu (the 73-codon ORF)
Procedure: as §1

SARS-CoV-2 S = target: SARS-CoV-2 S
Procedure: as §1

SARS-CoV-2 NSP14 = target: SARS-CoV-2 NSP14
Procedure: as §1

Measured: yeast fitness gain

B1: CNN1, P51911 (protein)
chain: MSSAHFNRGPAYGLSAEVKNKLAQKYDHQREQELREWIEGVTGRRIGNNFMDGLKDGIILCEFINKLQPGSVKKINESTQNWHQLENIGNFIKAITKYGVKPHDIFEANDLFENTNHTQVQSTLLALASMAKTKGNKVNVGVKYAEKQERKFEPGKLREGRNIIGLQMGTNKFASQQGMTAYGTRRHLYDPKLGTDQPLDQATISLQMGTNKGASQAGMTAPGTKRQIFEPGLGMEHCDTLNVSLQMGSNKGASQRGMTVYGLPRQVYDPKYCLTPEYPELGEPAHNHHAHNYYNSA
inactive: SARS-CoV-2 E 0.0941 | SARS-CoV-2 M 0.0401 | SARS-CoV-2 N -0.0344 | SARS-CoV-2 NSP1 = -0.0521 | SARS-CoV-2 NSP10 = -0.103 | SARS-CoV-2 NSP12 = -0.0253 | SARS-CoV-2 NSP13 = -0.00888 | SARS-CoV-2 NSP15 = 0.0216 | SARS-CoV-2 NSP16 = 0.117 | SARS-CoV-2 NSP2 = -0.0511 | SARS-CoV-2 NSP4 = -0.433 | SARS-CoV-2 NSP5 = 0.0593 | SARS-CoV-2 NSP6 = 0.0464 | SARS-CoV-2 NSP7 = -0.141 | SARS-CoV-2 NSP8 = 0.0429 | SARS-CoV-2 NSP9 = -0.00206 | SARS-CoV-2 ORF10 = 0.049 | SARS-CoV-2 ORF3A -0.0807 | SARS-CoV-2 ORF3B -0.0653 | SARS-CoV-2 ORF6 = -0.0087 | SARS-CoV-2 ORF7A -0.069 | SARS-CoV-2 ORF7B 0.0713 | SARS-CoV-2 ORF8 = 0.0385 | SARS-CoV-2 ORF9B -0.0724 | [1] 0.043 | SARS-CoV-2 S -0.00564

B2: COA5, Q86WW8 (protein)
chain: MPKYYEDKPQGGACAGLKEDLGACLLQSDCVVQEGKSPRQCLKEGYCNSLKYAFFECKRSVLDNRARFRGRKGY
inactive: SARS-CoV-2 E 0.0397 | SARS-CoV-2 M -0.0204 | SARS-CoV-2 NSP1 = -0.147 | SARS-CoV-2 NSP10 = 0.0305 | SARS-CoV-2 NSP12 = 0.0555 | SARS-CoV-2 NSP13 = 0.0344 | SARS-CoV-2 NSP14 = 0.151 | SARS-CoV-2 NSP15 = -0.0135 | SARS-CoV-2 NSP16 = 0.0438 | SARS-CoV-2 NSP2 = -0.131 | SARS-CoV-2 NSP4 = 0.0685 | SARS-CoV-2 NSP5 = 0.00897 | SARS-CoV-2 NSP6 = -0.0384 | SARS-CoV-2 NSP7 = -0.0236 | SARS-CoV-2 NSP8 = 0.032 | SARS-CoV-2 NSP9 = -0.0565 | SARS-CoV-2 ORF10 = 0.091 | SARS-CoV-2 ORF3A 0.00298 | SARS-CoV-2 ORF3B 0.0281 | SARS-CoV-2 ORF6 = 0.0263 | SARS-CoV-2 ORF7A -0.0825 | SARS-CoV-2 ORF7B -0.00608 | SARS-CoV-2 ORF8 = -0.00416 | SARS-CoV-2 ORF9B 0.0261 | [1] -0.0546 | SARS-CoV-2 S 0.0285

B3: CXCL14, O95715 (protein)
chain: MSLLPRRAPPVSMRLLAAALLLLLLALYTARVDGSKCKCSRKGPKIRYSDVKKLEMKPKYPHCEEKMVIITTKSVSRYRGQEHCLHPKLQSTKRFIKWYNAWNEKRRVYEE
inactive: SARS-CoV-2 E -0.0708 | SARS-CoV-2 M 0.0615 | SARS-CoV-2 NSP1 = -0.0414 | SARS-CoV-2 NSP10 = 0.0488 | SARS-CoV-2 NSP12 = -0.129 | SARS-CoV-2 NSP13 = -0.0931 | SARS-CoV-2 NSP15 = -0.444 | SARS-CoV-2 NSP16 = 0.0749 | SARS-CoV-2 NSP2 = -0.103 | SARS-CoV-2 NSP5 = -0.00845 | SARS-CoV-2 NSP6 = -0.0456 | SARS-CoV-2 NSP7 = 0.0391 | SARS-CoV-2 NSP8 = 0.0842 | SARS-CoV-2 NSP9 = 0.03 | SARS-CoV-2 ORF10 = -0.0199 | SARS-CoV-2 ORF3A -0.0556 | SARS-CoV-2 ORF3B -0.00783 | SARS-CoV-2 ORF6 = 0.00441 | SARS-CoV-2 ORF7A 0.0487 | SARS-CoV-2 ORF7B 0.0126 | SARS-CoV-2 ORF8 = -0.0112 | SARS-CoV-2 ORF9B -0.0449 | [1] 0.106 | SARS-CoV-2 S 0.0335

B4: GAR1, Q9NY12 (protein)
chain: MSFRGGGRGGFNRGGGGGGFNRGGSSNHFRGGGGGGGGGNFRGGGRGGFGRGGGRGGFNKGQDQGPPERVVLLGEFLHPCEDDIVCKCTTDENKVPYFNAPVYLENKEQIGKVDEIFGQLRDFYFSVKLSENMKASSFKKLQKFYIDPYKLLPLQRFLPRPPGEKGPPRGGGRGGRGGGRGGGGRGGGRGGGFRGGRGGGGGGFRGGRGGGFRGRGH
inactive: SARS-CoV-2 E 0.0207 | SARS-CoV-2 M 0.0803 | SARS-CoV-2 N 0.117 | SARS-CoV-2 NSP1 = 0.0352 | SARS-CoV-2 NSP10 = 0.0214 | SARS-CoV-2 NSP12 = -0.0433 | SARS-CoV-2 NSP13 = 0.0221 | SARS-CoV-2 NSP14 = 0.149 | SARS-CoV-2 NSP15 = -0.048 | SARS-CoV-2 NSP16 = -0.0298 | SARS-CoV-2 NSP2 = -0.218 | SARS-CoV-2 NSP4 = 0.14 | SARS-CoV-2 NSP5 = 0.0211 | SARS-CoV-2 NSP6 = -0.0911 | SARS-CoV-2 NSP7 = 0.0354 | SARS-CoV-2 NSP8 = -0.13 | SARS-CoV-2 NSP9 = 0.147 | SARS-CoV-2 ORF10 = -0.117 | SARS-CoV-2 ORF3A -0.11 | SARS-CoV-2 ORF3B -0.0393 | SARS-CoV-2 ORF6 = 0.043 | SARS-CoV-2 ORF7A -0.108 | SARS-CoV-2 ORF7B 0.00293 | SARS-CoV-2 ORF8 = -0.0345 | SARS-CoV-2 ORF9B 0.0931 | [1] 0.0346 | SARS-CoV-2 S 0.123

B5: GATSL3, Q8WTX7 (protein)
chain: MELHILEHRVRVLSVARPGLWLYTHPLIKLLFLPRRSRCKFFSLTETPEDYTLMVDEEGFKELPPSEFLQVAEATWLVLNVSSHSGAAVQAAGVTKIARSVIAPLAEHHVSVLMLSTYQTDFILVREQDLSVVIHTLAQEFDIYREVGGEPVPVTRDDSSNGFPRTQHGPSPTVHPIQSPQNRFCVLTLDPETLPAIATTLIDVLFYSHSTPKEAASSSPEPSSITFFAFSLIEGYISIVMDAETQKKFPSDLLLTSSSGELWRMVRIGGQPLGFDECGIVAQIAGPLAAADISAYYISTFNFDHALVPEDGIGSVIEVLQRRQEGLAS
inactive: SARS-CoV-2 E 0.0365 | SARS-CoV-2 M 0.0265 | SARS-CoV-2 N 0.0711 | SARS-CoV-2 NSP1 = 0.0626 | SARS-CoV-2 NSP10 = 0.0415 | SARS-CoV-2 NSP12 = 0.0164 | SARS-CoV-2 NSP13 = 0.00548 | SARS-CoV-2 NSP14 = -0.196 | SARS-CoV-2 NSP15 = -0.087 | SARS-CoV-2 NSP16 = -0.166 | SARS-CoV-2 NSP2 = -0.077 | SARS-CoV-2 NSP4 = 0.0141 | SARS-CoV-2 NSP5 = 0.0562 | SARS-CoV-2 NSP6 = 0.037 | SARS-CoV-2 NSP7 = 0.0559 | SARS-CoV-2 NSP8 = -0.0291 | SARS-CoV-2 NSP9 = -0.0118 | SARS-CoV-2 ORF10 = 0.0311 | SARS-CoV-2 ORF3A -0.0109 | SARS-CoV-2 ORF3B -0.0465 | SARS-CoV-2 ORF6 = 0.0165 | SARS-CoV-2 ORF7A -0.00861 | SARS-CoV-2 ORF7B -0.0743 | SARS-CoV-2 ORF8 = -0.00564 | SARS-CoV-2 ORF9B 0.0298 | [1] -0.000125 | SARS-CoV-2 S 0.0213
